# The whole screen tested about 94,000 compounds, of which about 4,000 (4.3%) were called active. The inconclusive results got no clear call from the source; some entries with a clear call stand among them for comparison. The call rests on the fitted dose curve; in most records, active means well fitted inhibition curve with a large enough effect; inconclusive means small, poorly fitted or top-dose-only effect; inactive means no such curve, though single readings can be large or run the other way. Where the call is inconclusive, the potency comes from a doubtful curve fit.
# Test: Cytotoxic Profiling in NIH 3T3 Cell Line of Diverse Libraries Using Quantitative High-Throughput Screening; further: nearly all actives have a fitted effect of over 55% in size
# Settings: NIH 3T3 viability, CellTiter-Glo ATP luminescence, 48-72 h; series mostly up to 96.7 µM
# How it was run: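 Cytotoxicity was measured by CellTiter-Glo ATP luminescence after 48 or 72 h compound exposure at 37 °C. Mouse NIH 3T3 fibroblasts were seeded at 400 cells/well and dosed by 23 nL pin transfer.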
# Potency means the concentration at half of the fitted maximal effect; tags describe the fitted curve by direction and shape.
row,Structure (SMILES),Potency
1,Cc1ccsc1CN(C)C(=O)C1CCCN(C2CCN(C(=O)C3CC3)CC2)C1 (configuration not stated),inactive
2,O=C(Cc1cccc(F)c1)N1CCC(Oc2ccccc2-c2nc(C3CC3)no2)C1 (configuration not stated),"inconclusive: 31.6 µM [inhibitor, partial curve, poor fit]"
3,CNC(=O)NC[C@H]1CCN(Cc2ccc(OC)cc2OC)C[C@H]1N(C)C,inactive
4,COCCNC(=O)C(C)N1C(=O)COc2ccc(C(=O)COc3ccc(C)c(C)c3)cc21 (configuration not stated),"inconclusive: 28.2 µM [inhibitor, partial curve, poor fit]"
5,Cc1ccc([S+](=O)([O-])N2CCN(C(=O)c3nc4cccnc4n(C4CC4)c3=O)CC2)cc1,inactive
6,Cc1nn(-c2ccccc2)c2c1C(C)N(C1CCN(C(=O)NC(C)C)CC1)C2=O (configuration not stated),"inconclusive: 14.1 µM [inhibitor, full curve]"
7,COc1ccc(-c2noc(CC3CCN(C(=O)c4ccc(OC)nc4)CC3)n2)cc1,"inconclusive: 6.31 µM [inhibitor, full curve, poor fit]"
8,Cn1cccc1CN1CCC2(CC1)CC(=O)c1ccc(Cl)cc1O2,"inconclusive: 56.2 µM [inhibitor, partial curve, poor fit]"
9,Cc1ccc2oc(C(=O)NC3CC(=O)N(C(C)C)C3)c(C)c2c1 (configuration not stated),inactive
10,COc1ccc(Nc2ccnc(N3CCC(C(=O)N4CCN(C)CC4)CC3)n2)cc1,inactive
11,CCOc1ccc2c(n1)CCN(C(=O)Nc1ccc(CC)cc1)C2,"inconclusive: 44.7 µM [inhibitor, partial curve, poor fit]"
12,CCc1cccc2c(C(CC(=O)NCCc3ccc(OC)c(OC)c3)c3cccc(F)c3)c[nH]c12 (configuration not stated),"inconclusive: 14.1 µM [inhibitor, full curve]"
13,COCCN1CCCC[C@]2(C[C@H](CO)[C@H](c3ccccc3)N2C(=O)CC2CCCC2)C1=O,"inconclusive: 79.4 µM [inhibitor, partial curve, poor fit]"
14,O=C1OCC2(CCN(Cc3cccc(OC(F)(F)F)c3)C2)N1c1ccncc1 (configuration not stated),"inconclusive: 56.2 µM [inhibitor, partial curve, poor fit]"
15,O=C(Cc1ccc(F)cc1)N1CCOCC2(CN(Cc3ccccc3)C2)C1,active: 35.5 µM
16,O=C(c1cccc(-c2ccccn2)c1)N1CCN(C(=O)C2CCCC2)CC1,inactive
17,Cc1cnc(-c2cccnc2)n1C1CCCN(C(=O)Nc2ccc3c(c2)OCCO3)C1 (configuration not stated),inactive
18,O=C(CN1C(=O)C(c2ccccc2)=NC12CCCCC2)NCc1ccccc1,"inconclusive: 70.8 µM [inhibitor, single point]"
19,COc1ccccc1-c1cc(-c2c(C)noc2C)cc2c1C(=O)N(C)C2,"inconclusive: 44.7 µM [inhibitor, partial curve, poor fit]"
20,CC(C)N1CC2CCC(C1)N2Cc1ccc(-c2ccsc2)cc1,"inconclusive: 50.1 µM [inhibitor, partial curve, poor fit]"
21,CN(C)C[C@@H]1CN(Cc2cccnc2)C[C@H]1NC(=O)c1ccc(Cl)s1,"inconclusive: 50.1 µM [inhibitor, partial curve, poor fit]"

row,Structure (SMILES),Potency
1,Cc1ccc(CN2CCC3(Cc4ccccc4NC3=O)C2)cc1 (configuration not stated),inactive
2,O=C(c1ccccc1F)N1CCC(CCOc2ccccc2)C1 (configuration not stated),"inconclusive: 50.1 µM [inhibitor, partial curve, poor fit]"
3,COc1ccccc1N1CCN(C2CCCN(C(=O)c3ccc4nc(C)[nH]c4c3)C2)CC1 (configuration not stated),inactive
4,O=C1Nc2ccccc2CC12CCN(Cc1cccc3ccccc13)C2 (configuration not stated),"inconclusive: 112 µM [inhibitor, single point]"
5,COc1cccc(-n2cc(CN(C)c3nccc(-c4cccnc4)n3)cn2)c1,"inconclusive: 44.7 µM [inhibitor, partial curve]"
6,O=C(C1CC1)N1CCN(C2CCN(Cc3ccccn3)C2=O)CC1 (configuration not stated),inactive
7,Cc1ccccc1CC(=O)N1C[C@@H](CO)[C@H](NC(=O)c2ccccc2)C1,inactive
8,CN1C(=O)CO[C@H]2CN(Cc3c[nH]c4ccccc34)C[C@H]21,"inconclusive: 126 µM [inhibitor, single point]"
9,COc1ccc(-c2cn3cc(C(=O)NC4CC4)nc3s2)cc1,"inconclusive: 25.1 µM [inhibitor, full curve, poor fit]"
10,O=C(Nc1ccc(Cl)cc1Cl)c1cn2c(n1)CN(C(=O)c1cccnc1)CC2,"inconclusive: 44.7 µM [inhibitor, partial curve, poor fit]"
11,COc1ccc(CN2C(=O)O[C@@H]3CN(S(=O)(=O)N(C)C)C[C@@H]32)cc1OC,inactive
12,COc1ccc(CCC(=O)N2CC(N(CC(C)C)C3CCN(C)CC3)C2)cc1,inactive
13,Cc1ccc(C2(C(=O)NC(C)c3cnc(-c4ccncc4)nc3C)CC2)cc1 (configuration not stated),"inconclusive: 56.2 µM [inhibitor, partial curve, poor fit]"
14,Cc1noc(-c2ccccc2OC2CCN(C(=O)CCC3CCCC3)C2)n1 (configuration not stated),"inconclusive: 56.2 µM [inhibitor, partial curve, poor fit]"
15,CN1C(=O)CCc2cc(NC(=O)Cc3ccccc3Cl)ccc21,"inconclusive: 44.7 µM [inhibitor, partial curve, poor fit]"
16,N#Cc1cccc(NC(=O)N2CCC3(CCCN(C4CCCC4)C3=O)C2)c1 (configuration not stated),"inconclusive: 79.4 µM [inhibitor, single point]"
17,O=C(NC1CCCCC1)c1nc2sccn2c1-c1cccc(C(F)(F)F)c1,inactive
18,CCOC(=O)c1cccc(NCC2=CC(C)(C)COc3ccc(OC)cc32)c1,"inconclusive: 31.6 µM [inhibitor, partial curve, poor fit]"
19,COc1ccc2c(c1)C(C(=O)Nc1cc([S+](=O)([O-])N3CCOCC3)ccc1C)=CC(C)(C)CO2,inactive
20,O=C(c1ccc2cccnc2c1O)N1CCCC(CCc2ccccc2F)C1 (configuration not stated),"inconclusive: 10 µM [inhibitor, full curve, poor fit]"
21,CNC(=O)CCn1ncc2cc(OC3CCc4cccc(-c5cccnc5OC)c43)ccc21 (configuration not stated),"inconclusive: 12.6 µM [inhibitor, full curve, poor fit]"
